Results on 88 compounds are retold here after paper PMC4336329 (PLoS ONE, 2015).

Molecules are shown by their SMILES. Hit rate of the full screen: of about 310,000 compounds, about 2,200 (0.71%) showed an effect of 50% or more. Effects have a minus sign here. The list shows a part of the results.

The test deals with human ether-à-go-go-related gene (hERG) potassium channel (human, UniProt Q12809). Kind of test: primary screen, population patch clamp on CHO cells stably expressing hERG.
Sequence of human ether-à-go-go-related gene (hERG) potassium channel (Q12809 whole entry, looked up): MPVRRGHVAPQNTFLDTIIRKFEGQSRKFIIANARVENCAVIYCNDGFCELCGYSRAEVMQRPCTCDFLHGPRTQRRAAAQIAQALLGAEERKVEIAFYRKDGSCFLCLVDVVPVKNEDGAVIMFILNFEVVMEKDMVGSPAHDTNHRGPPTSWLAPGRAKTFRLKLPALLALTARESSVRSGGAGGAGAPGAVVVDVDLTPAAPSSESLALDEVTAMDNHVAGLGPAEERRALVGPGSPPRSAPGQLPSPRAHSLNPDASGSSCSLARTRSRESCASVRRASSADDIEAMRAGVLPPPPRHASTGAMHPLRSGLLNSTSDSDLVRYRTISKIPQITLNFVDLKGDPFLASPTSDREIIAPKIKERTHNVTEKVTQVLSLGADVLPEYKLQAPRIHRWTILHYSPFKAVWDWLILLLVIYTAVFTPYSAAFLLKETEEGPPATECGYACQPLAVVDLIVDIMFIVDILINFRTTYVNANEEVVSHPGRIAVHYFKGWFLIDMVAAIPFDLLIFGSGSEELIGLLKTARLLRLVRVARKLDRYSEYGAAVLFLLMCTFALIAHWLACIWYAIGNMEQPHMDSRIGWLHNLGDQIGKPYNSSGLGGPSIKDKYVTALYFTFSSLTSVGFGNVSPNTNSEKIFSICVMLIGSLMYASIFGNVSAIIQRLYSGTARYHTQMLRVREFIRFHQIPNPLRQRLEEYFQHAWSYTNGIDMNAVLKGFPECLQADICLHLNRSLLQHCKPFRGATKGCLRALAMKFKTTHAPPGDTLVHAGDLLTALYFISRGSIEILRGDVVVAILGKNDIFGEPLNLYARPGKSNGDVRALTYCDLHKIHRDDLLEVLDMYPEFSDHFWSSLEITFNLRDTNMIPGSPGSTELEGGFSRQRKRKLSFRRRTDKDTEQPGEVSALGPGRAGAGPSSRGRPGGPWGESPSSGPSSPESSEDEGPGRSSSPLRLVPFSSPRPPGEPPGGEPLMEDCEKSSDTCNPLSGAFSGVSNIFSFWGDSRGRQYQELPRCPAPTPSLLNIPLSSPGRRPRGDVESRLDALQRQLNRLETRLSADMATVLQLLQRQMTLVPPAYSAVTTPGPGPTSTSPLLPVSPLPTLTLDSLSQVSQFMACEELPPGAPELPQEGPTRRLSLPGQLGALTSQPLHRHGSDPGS
Regarding `COCCn1c(=S)[nH]c2cc(C(=O)N3CCc4ccccc43)ccc2c1=O`, the “hERG current change (%, negative = inhibition) at 1uM” value is listed as 16.9%.
For `S=C(NCC1CCCCC1)Nc1cccnc1`, the “hERG current change (%, negative = inhibition) at 1uM” value was found to be 0.642%.
The figure for `COc1cccc(NC(=O)c2nc(SC)ncc2Cl)c1` is 14.8%.
The figure for `CCOC(=O)c1cc(-c2ccccc2)nn1CC1CC(c2ccc(Cl)cc2)=NO1` (stereo not shown) is 9.53%.
As for `Cc1cc(NC(=O)CN2C(=O)NC(C)(c3ccc(OC(F)F)cc3)C2=O)no1` (stereo not shown), the “hERG current change (%, negative = inhibition) at 1uM” value worked out at 4.51%.
Take `COc1ccccc1CCC(=O)N1CCC(n2nccc2NC(=O)CC(C)C)CC1`: the “hERG current change (%, negative = inhibition) at 1uM” value is recorded as 11.1%.
The figure for `Nc1ncnc(Nc2ccccn2)c1[N+](=O)[O-]` is 8.1%; for `Cc1ccc2cc3cc(C(=O)NC4CCCCC4)oc3nc2c1` it is 14.8%.
The figure for `C[C@H](NC(=O)c1nc[nH]c1C(=O)NC1CC[NH2+]CC1)C(=O)OC(C)(C)C.[Cl-]` is 16.1%; for `CCCN1C(=O)C(NS(=O)(=O)c2ccc(N)cc2)(C(F)(F)F)C(C(=O)OC)=C1C` (stereo not shown) it is 8.47%; for `O=C(CCn1c(=O)c2sccc2n(Cc2cc(=O)n3ccccc3n2)c1=O)NCc1ccco1` it is -25.1%.
The figure for `Cn1c(SCc2nc(-c3cccs3)no2)nnc1C1CCCCC1` is 2.84%; for `COc1ccc(CCNC(=O)CCc2nnc(Cc3ccc4c(c3)OCO4)o2)cc1` it is 6.31%; for `COc1ccc2c(c1)OC[C@H]1[C@H]2N2C(=O)CN(Cc3ccc(F)cc3)C(=O)[C@@]2(C)[C@H]1c1ccccc1` it is 9.37%.
Consider `O=C(CSc1cnc2ccccc2n1)c1ccc(F)cc1`, for which the “hERG current change (%, negative = inhibition) at 1uM” value is 13.6%.
The figure for `O=C(NC1CCCCCC1)c1ccc(CS(=O)Cc2cccc(Cl)c2)o1` (stereo not shown) is 5.33%; for `O=C(COC(=O)c1ccc(F)cc1)NCc1ccc(F)cc1` it is 6.68%; for `O=C(O)/C(=C\c1cccc(OCc2ccccc2)c1)c1ccc(F)cc1` it is -0.954%.
Regarding `Cc1ccc(Cn2c(=S)[nH]c3ccccc3c2=O)cc1`, the “hERG current change (%, negative = inhibition) at 1uM” value is on record as 15.4%.
The figure for `COc1ccc(N2C(=O)CC(Cc3ccccc3OC)C2=O)cc1` (stereo not shown) is 9.24%.
For the compound `O=C(OCc1cccc([N+](=O)[O-])c1)c1cc2ccccc2oc1=O`, the “hERG current change (%, negative = inhibition) at 1uM” value is 12.5%.
Under `CN1CCN(Cc2c(O)ccc3occ(C(=O)c4ccccc4)c23)CC1` stands -14.3%; under `CN1CCc2c(sc(NC(=O)Cc3ccc(F)cc3)c2C(N)=O)C1.Cl`, 21.1%.
Turning to `O=[N+]([O-])c1ccc2[nH]c(O)c(N=NC(=S)Nc3cccnc3)c2c1`, the “hERG current change (%, negative = inhibition) at 1uM” value came to 10.8%.
Under `O=C(NOC(=O)c1ccccc1)c1ccccc1` stands 11.8%; under `c1ccc2nc3c(nc2c1)CCc1nonc1-3`, -6.7%.
The figure for `Cc1nc(SCc2cccc(C(=O)O)c2)nc2c1CCCC2` is 15%.
The figure for `COc1ccc2nc(NC(=O)C3CCCN(S(=O)(=O)c4cccc5nsnc45)C3)sc2c1` (stereo not shown) is 13.2%.
`CCN(CC)CCCNC(=O)c1c(O)c2ccccc2n(Cc2ccccc2)c1=O.Cl`: the “hERG current change (%, negative = inhibition) at 1uM” value is -12.3%.
Under `CCSc1ncc(/C=N/Nc2ccc([N+](=O)[O-])cc2)n1C` stands 8.28%; under `Cc1cc(CN2CCCC(CNC(=O)c3ccc(F)cc3)C2)cc(C)c1O` (stereo not shown), -14.5%; under `CCOc1ccc(S(=O)(=O)Nc2ccccc2C(=O)NCc2ccco2)cc1`, -8.28%.
Regarding `O=C(c1ccccc1NS(=O)(=O)c1ccccc1[N+](=O)[O-])N1CCOCC1`, the “hERG current change (%, negative = inhibition) at 1uM” value worked out at 8.91%.
Turning to `Cc1ccccc1C(=O)Nc1cc(S(=O)(=O)N2CCCCC2)ccc1N1CCN(C)CC1`, the “hERG current change (%, negative = inhibition) at 1uM” value stood at 3.19%.
For `Cc1ccccc1NC(=O)CC(=O)Nc1ccccc1C`, the “hERG current change (%, negative = inhibition) at 1uM” value is reported as 11.8%.
Turning to `O=C(Nc1ccccc1N1CCOCC1)c1cccnc1Cl`, the “hERG current change (%, negative = inhibition) at 1uM” value is recorded as 10.8%.
On to `CC(OC(=O)Cc1ccccc1[N+](=O)[O-])C(=O)Nc1ccc(Cl)cn1` (stereo not shown), for which the “hERG current change (%, negative = inhibition) at 1uM” value stood at 4.9%.
The figure for `Cc1cccc(NC(=O)COc2ccccc2C)n1` is 11.5%; for `O=C(CC1Sc2ncnn2C1=O)Nc1ccccc1` (stereo not shown) it is 0.262%; for `COc1ccc(C2=NC(=O)NC2c2ccc(OC)cc2)cc1` (stereo not shown) it is -4.75%.
The figure for `CCCCc1nc(SCC(=O)N2CCCC2)c2c(=O)n(C)c(=O)n(C)c2n1` is 7.93%.
On to `C/C(=N/NC(=O)c1ccc(C)s1)c1cccc(NC(=O)COc2ccc(Cl)cc2C)c1`, for which the “hERG current change (%, negative = inhibition) at 1uM” value is reported as 7.53%.
For the compound `O=C(CC1OCC2CCCN2C1=O)Nc1ccc([N+](=O)[O-])cc1` (stereo not shown), the “hERG current change (%, negative = inhibition) at 1uM” value is reported as 8.79%.
As to `CCOC(=O)NCc1ccccc1`, the “hERG current change (%, negative = inhibition) at 1uM” value was -5.01%.
The figure for `COc1ccc(C2CCN(CC(=O)N(C)C)CC2O)cc1` (stereo not shown) is 26.2%; for `COC(=O)c1ccccc1NC1=C/C(=N\S(=O)(=O)c2ccc(C(=O)O)cc2)c2ccccc2C1=O` it is 13.2%; for `Cc1ccc(CN2CC(C(=O)Nc3ccccc3N3CCCC3)CC2=O)cc1` (stereo not shown) it is 0.137%.
The figure for `CCc1c(C)nc(SCC(=O)c2cccs2)c(C#N)c1C` is 11.9%.
Take `CC1=C(C(=O)Nc2ccccn2)C(c2ccc(Br)cc2)n2ncnc2N1` (stereo not shown): the “hERG current change (%, negative = inhibition) at 1uM” value turned out to be 9.18%.
As for `COc1cccc(-c2csc(N3CCN(CC(=O)NNC(=O)c4ccc(Br)cc4)CC3)n2)c1`, the “hERG current change (%, negative = inhibition) at 1uM” value is reported as -2.77%.
Take `CN(C)C(=O)c1cc(C(=O)c2ccc(C(F)(F)F)cc2F)c[nH]1`: the “hERG current change (%, negative = inhibition) at 1uM” value turned out to be 2.12%.
Turning to `COc1ccccc1N(C)S(=O)(=O)c1ccc(C(=O)N2CCC(C(N)=O)CC2)cc1`, the “hERG current change (%, negative = inhibition) at 1uM” value stood at 16.2%.
The figure for `CCCN(C#N)c1nc(NCC)nc(NC(C)C)n1` is -1.12%; for `CCCNC(=O)c1cc(Cl)c(NC(=O)C2=CSCCO2)cc1OC` it is 12.5%.
`CC(OC(=O)c1cccc(-n2cnnn2)c1)C(=O)Nc1ccc(F)cc1` (stereo not shown): the “hERG current change (%, negative = inhibition) at 1uM” value stood at 9.34%.
The figure for `NC(=O)C1CCN(C(=O)COc2ccc(S(=O)(=O)NC3CCCC3)cc2)CC1` is 17.7%.
Under `CC(C)CCNC(=O)CN(Cc1ccc(F)cc1)C(=O)CCC(=O)Nc1ccccn1` stands -6.67%.
`O=C(CSc1nccc(=O)[nH]1)N1CCCc2ccccc21`: the “hERG current change (%, negative = inhibition) at 1uM” value is 11%.
As for `COc1ccc(OC)c2sc(NNC(=O)COc3ccccc3)nc12`, the “hERG current change (%, negative = inhibition) at 1uM” value worked out at 10.1%.
The figure for `O=C(c1sc2cc(F)ccc2c1Cl)N1CCN(c2ccccc2)CC1` is 8.99%.
Under `NC(=O)c1ccc(Cn2c(C(=O)c3cc(Cl)c(N)c(Cl)c3)c3ccccc3[n+]2[O-])cc1` stands 3.92%; under `CC(=O)Nc1ccc(S(=O)(=O)c2cc(O)ccc2O)cc1`, 16%.
Under `CCOC(=O)c1c(C)[nH]c(C(=O)Cn2nnc(-c3ccccc3)n2)c1C` stands 7.85%.
Regarding `CCn1c(SCC(=O)NCc2ccccc2)nc2nc3c(cc2c1=O)CCCC3`, the “hERG current change (%, negative = inhibition) at 1uM” value is listed as -0.499%.
The figure for `COc1ccc(-c2nnc(SCC(=O)NC3CCCC3)n2C)cc1` is 12.5%; for `COc1ccc(NC(=S)Nc2nc(CC(=O)Nc3ccccc3OC)cs2)cc1` it is 1.25%.
Under `c1cc(CNc2ccc3c(c2)OCO3)ccn1` stands 8.74%.
`O=C(Nc1ccccc1C(=O)O)c1cccc(C(=O)Nc2ccccc2C(=O)O)c1`: the “hERG current change (%, negative = inhibition) at 1uM” value was 17.9%.
Under `COc1ccc(COC(=O)c2ccc(Cl)c(S(=O)(=O)N3CCOCC3)c2)cc1F` stands -15.4%.
Under `Cc1ccsc1C1C(C(=O)O)c2ccccc2C(=O)N1C` (stereo not shown) stands 12.3%.
`COc1cccc(C(=O)Nc2cc(OC)ccc2NC(=O)c2ccco2)c1`: the “hERG current change (%, negative = inhibition) at 1uM” value was 14%.
In the case of `CCOC(=O)c1cccc(NC(=O)C2CCCN(S(=O)(=O)c3c(C)n[nH]c3C)C2)c1` (stereo not shown), the “hERG current change (%, negative = inhibition) at 1uM” value came out at 14.5%.
Consider `Cc1ccccc1OCC(O)Cn1c(NCc2ccccc2)nc2c1c(=O)[nH]c(=O)n2C` (stereo not shown), for which the “hERG current change (%, negative = inhibition) at 1uM” value is 0.772%.
The figure for `Cc1noc(C)c1C(=O)N1CCN(S(=O)(=O)c2ccc(F)cc2)CC1` is 9.01%.
Under `CC(C)CC(=O)Nc1nnc(CSCc2ccc(F)cc2)s1` stands 8.12%.
For the compound `Cn1cccc1CC(=O)N/N=C/c1ccco1`, the “hERG current change (%, negative = inhibition) at 1uM” value is given as 15.6%.
Consider `Cl.OCCN1CCN(CC(O)COCc2ccc3c(c2)OCO3)CC1` (stereo not shown), for which the “hERG current change (%, negative = inhibition) at 1uM” value was determined as 5.06%.
The figure for `CCOC(=O)C1=C(COC(=O)/C=C/c2ccc(SC)cc2)NC(=O)NC1C` (stereo not shown) is 7.54%; for `CC(OC(=O)c1ccccc1NCCO)C(=O)Nc1ccnn1C(C)C` (stereo not shown) it is 14.1%.
The figure for `O=C(CN1CCN(c2ccc([N+](=O)[O-])cc2Cl)CC1)N1CCOCC1` is -11%.
Under `COc1ccc(NS(=O)(=O)c2ccc(C)c(C(=O)NNC(=O)c3ccccc3O)c2)cc1` stands 9.22%; under `c1ccc(NC(c2ccccc2)c2ccncc2)cc1` (stereo not shown), 2.05%.
For `CCOC(=O)c1c(N=CN(C)C)c2cc([N+](=O)[O-])cnc2n1C`, the “hERG current change (%, negative = inhibition) at 1uM” value came out at 4.88%.
As for `CC(=O)Nc1nonc1-c1nc2ccccc2n1C`, the “hERG current change (%, negative = inhibition) at 1uM” value is recorded as 11.8%.
In the case of `CCCCn1c(=O)[nH]c(=O)c2c1nc(-c1cc(Br)c(OCC)c(OC)c1)n2C`, the “hERG current change (%, negative = inhibition) at 1uM” value amounted to 2.38%.
The figure for `CCOC(=O)N1CCN(C(=O)CN(C)S(=O)(=O)c2ccc(OC)c(OC)c2)CC1` is 10.8%; for `COCCn1c(C)cc(C2=NNC(=NC(C)(C)C)SC2)c1C` it is 12.5%.
Under `Cc1cc(NC(=O)COC(=O)c2ccc(S(=O)(=O)N3CCCc4ccccc43)cc2)no1` stands 3.71%.
